Target: A2a adenosine receptor (Homo sapiens, UniProt P29274)
Assay: biochemical

With `Nc1nc(Nc2ccccc2)nc2c1ncn2[C@@H]1O[C@H](CO)[C@@H](O)[C@H]1O` [CV 1808, 2-phenylaminoadenosine] the IC50 was 9.77 nM.

Reference: patent publication US20040121406A1
